Experimental data reported in the supplement of paper PMC3334620.
Whole data set: some 33,000 sequences, median “E-score (-0.5 to 0.5)” near -0.053, cut for the highest 2% near 0.37. Some of the results follow.

Each sequence was assayed against Hap1 (UniProt P0CE41) (assay: PBM E-score (8-mer binding enrichment) (E-score (-0.5 to 0.5)); higher = stronger / more preferred TF binding; most listed sequences are background and not binding sites). Details: protein concentration: 200 nM; construct: GST-DNA-binding domain.
Chain of UniProt P0CE41 (P0CE41 whole entry, the tested form may be a part): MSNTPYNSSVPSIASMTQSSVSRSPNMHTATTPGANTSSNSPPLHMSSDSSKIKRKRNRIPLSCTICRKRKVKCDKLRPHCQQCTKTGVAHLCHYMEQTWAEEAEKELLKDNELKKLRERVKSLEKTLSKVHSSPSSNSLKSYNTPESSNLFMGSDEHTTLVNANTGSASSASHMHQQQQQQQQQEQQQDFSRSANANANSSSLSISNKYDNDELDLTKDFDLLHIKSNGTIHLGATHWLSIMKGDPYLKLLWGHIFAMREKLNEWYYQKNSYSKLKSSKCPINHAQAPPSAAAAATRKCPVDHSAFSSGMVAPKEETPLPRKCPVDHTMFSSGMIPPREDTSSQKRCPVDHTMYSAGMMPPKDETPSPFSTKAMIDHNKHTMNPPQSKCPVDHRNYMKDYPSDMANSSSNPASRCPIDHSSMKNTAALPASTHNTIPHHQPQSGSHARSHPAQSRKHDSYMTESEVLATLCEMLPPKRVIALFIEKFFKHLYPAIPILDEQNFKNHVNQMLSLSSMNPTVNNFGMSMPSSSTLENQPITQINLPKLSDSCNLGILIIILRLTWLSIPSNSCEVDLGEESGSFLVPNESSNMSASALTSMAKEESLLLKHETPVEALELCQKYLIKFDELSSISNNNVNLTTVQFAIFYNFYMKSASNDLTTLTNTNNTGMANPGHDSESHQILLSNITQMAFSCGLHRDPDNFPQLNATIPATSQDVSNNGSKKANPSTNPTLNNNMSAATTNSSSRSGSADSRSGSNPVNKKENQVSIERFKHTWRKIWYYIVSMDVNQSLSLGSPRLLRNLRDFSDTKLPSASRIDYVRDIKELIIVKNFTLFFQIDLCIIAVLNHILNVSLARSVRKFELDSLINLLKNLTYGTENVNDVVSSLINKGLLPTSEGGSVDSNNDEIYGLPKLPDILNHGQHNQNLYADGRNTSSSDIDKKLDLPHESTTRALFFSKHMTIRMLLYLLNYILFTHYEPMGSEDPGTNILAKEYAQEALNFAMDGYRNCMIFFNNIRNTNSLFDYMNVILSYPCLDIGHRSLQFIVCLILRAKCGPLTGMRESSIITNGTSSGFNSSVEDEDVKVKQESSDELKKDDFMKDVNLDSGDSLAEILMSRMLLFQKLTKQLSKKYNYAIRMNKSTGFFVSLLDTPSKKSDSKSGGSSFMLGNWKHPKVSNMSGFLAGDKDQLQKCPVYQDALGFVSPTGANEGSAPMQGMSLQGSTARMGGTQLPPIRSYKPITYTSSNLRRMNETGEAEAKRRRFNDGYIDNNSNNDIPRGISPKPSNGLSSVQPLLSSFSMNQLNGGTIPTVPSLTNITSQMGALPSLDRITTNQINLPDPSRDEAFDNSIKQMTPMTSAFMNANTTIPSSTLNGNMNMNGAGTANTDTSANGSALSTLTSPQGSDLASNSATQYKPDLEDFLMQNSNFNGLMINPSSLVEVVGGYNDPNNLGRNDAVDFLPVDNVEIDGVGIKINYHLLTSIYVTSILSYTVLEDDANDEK
Summary of the method: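 E-scores (a modified Wilcoxon-Mann-Whitney statistic) were assigned by the Universal PBM Analysis Suite to every ungapped eight-base word pooled with its reverse complement. The input came from universal all-10-mer Agilent arrays made double-stranded by primer extension and probed with GST-tagged yeast transcription factors at about 100-200 nM. Fluorescent anti-GST detected bound protein, and masliner normalised the scans.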

Sequence	PBM E-score
GCTACCGA	0.073
CGCCTGCC	-0.162
ACAGAACG	-0.103
AGGTCCGG	0.396
CCGAGAAC	0.329
ACGCTGCA	-0.166
AGGATCCA	-0.066
AAGCTCAT	-0.0306
CCTCACCC	0.00255
GCTCTCAC	-0.0915
GCAAATCA	-0.101
ATATCGTC	0.0615
AACCTCTT	0.0533
AACGCTAC	-0.0683
CAAAACTA	-0.0983
AAGCTGCC	0.0235
AATCCTCA	-0.195
CGCTATCA	0.155
GGATCGAA	0.168
AAATAGCG	0.0285
CAACCGTA	-0.223
GACGCACC	-0.118
AGGCCTAA	-0.118
AACTCCCA	-0.00143
ACACCTTG	-0.173

Sequence	PBM E-score
CCCCTGTC	-0.219
CCGTTTTC	0.15
ATAATATG	-0.00444
ACCTTGTA	-0.276
CACGAAAA	0.0279
GATCCCTA	-0.054
GTCGGTGA	0.216
ATACTAGC	0.0485
GATGACTA	-0.195
GGATCAAC	0.132
CAATGTAC	-0.294
CGGCTAAC	0.216
GATTTCCC	0.104
ATTAGGAA	0.0168
AACGTTAA	0.00437
AGCGGACT	0.287
AGATCTTC	-0.0164
ATTGCTGA	-0.219
GATAGAAC	0.0757
ATCCGGAC	0.439
CTGTAATA	0.108
ATAAAAAT	-0.0103
CCCGGGGA	0.359
CTCGAGCC	-0.0212
AAGAACGC	-0.011

Sequence	PBM E-score
ATTGGTTG	-0.269
GAATGTAC	-0.0234
CCCCATTA	-0.149
ATTTACAC	-0.0353
CCGGCCAG	0.351
CGGTAGAC	0.22
AATTGCGA	0.0482
AACGTCCT	-0.141
AGACAAGA	0.14
TAACACAA	-0.167
AGCTTGGA	-0.265
ACAGGTCC	0.138
AATATCAA	-0.125
GATCGAAA	0.121
AAGAGTTC	-0.153
GAAGATTC	0.051
GAAAGTTC	-0.0221
ATAAGGTA	-0.0129
TCCTTCGA	-0.0371
CCGCCTAA	0.0232
GCTGCCGA	0.161
GTACTCTA	-0.244
ACAACGCT	-0.153
AGTAGGTA	-0.138
CTTTCGCC	0.143

Sequence	PBM E-score
GAACACTC	0.192
GGTGCGAC	-0.0564
CAATCTAC	-0.153
GCTCGGCA	0.253
CTGAGTAC	-0.158
CCGGCATA	0.268
CGTCTAAA	-0.0423
CAGAATAA	-0.155
AGGCCTAG	-0.275
AACCCTAT	-0.182
AGTTCAAA	0.0357
GCATTATA	-0.075
ATAAATAG	0.151
CTGCAGAC	-0.128
GCTCAATA	-0.0662
CCAGATAC	-0.0844
TCCTGTCA	-0.199
CTAGGAAG	-0.318
ACTGCCCC	-0.0898
AAGTTCGC	-0.0822
TCAGTAGA	-0.241
AAGTACAT	0.0278
GGAATGAA	0.102
CTTTAGAC	-0.202
GTCTATTA	-0.0988

Sequence	PBM E-score
CGTGGTTC	0.0597
CACCCGTG	-0.138
AATTCCCC	0.189
AGGCGATG	-0.0588
CGAACTCG	0.192
CCTCAGCA	-0.195
GAGAGGAC	-0.149
GAACTGTC	0.00192
TTATAAAA	0.0188
ACTCGCAG	-0.0512
CCTATTCA	0.0229
AACTCCCC	0.103
TCTACTCA	-0.189
CCGTAATC	0.251
CACTTGGC	-0.0331
CCGTCGTA	0.0926
CCTTAGAG	-0.229
GTATGGAC	0.214
GCGCACGA	0.0826
GGATATCA	0.159
AAGGACCC	-0.0195
AAGACCCT	-0.15
GAAAATCC	0.167
ACGAGATA	-0.162
AACAATGC	-0.0343

Sequence	PBM E-score
TCTCCACA	-0.243
CAGAGGCC	-0.283
CACTGCGG	0.0606
CCTCGATA	-0.0037
AGTCTGGA	-0.209
AACAAACG	-0.042
GCTTCCTA	-0.0413
TCTCTACA	-0.196
GCGGTCCC	0.0699
CAGAGAAC	-0.318
TTAGGGAA	-0.0631
AGGCACGA	-0.0945
ATGAAAGC	0.0164
CCTAGAGC	-0.0873
CACGCCTA	-0.235
CGGATTAC	0.228
GGCTTTCA	-0.00366
GTTTCACA	-0.253
CGTTGGAG	-0.177
ACGTGCCC	-0.0044
GCCGCCCA	0.0642
GACTGCCA	-0.0454
ACGCACAA	-0.16
AGTCAAAG	-0.13
AATGAAGG	-0.199

Sequence	PBM E-score
ACAGTTTA	-0.162
CAAGTCAC	-0.0876
GAGCACCC	0.0849
GGGGATAC	0.252
CAGATTTC	-0.0179
GCGCACAC	0.00338
CGCAACGC	0.0985
ATTGACTC	-0.0645
ATGTTCGA	-0.0386
GTCAGGGA	-0.167
GCTCGGTA	0.321
AGCATAAC	-0.0647
TACGGATA	0.266
ATACAAGC	0.0326
CGACTGGC	0.0519
ACTTTATA	0.0306
ACATGTGA	-0.192
CTGTTGAC	-0.268
CAGGGTGG	-0.117
CAAAATAA	-0.128
AGATACGC	0.0318
ACGTCCTC	-0.132
